Measured values taken from the RNAGym collection of RNA variant scans (doi:10.1073/pnas.2313332121).
This sample is rich in variants without activity.

B1: TPR 5TU (parent)
chain: GGAUCUUCUCGAUCUAACAAAAAAGACAAAUCUGCCACAAAGCUUGAGAGCAUCUUCGGAUGCAGAGGCGGCAGCCUUCGGUGGCGCGAUAGCGCCAACGUUCUCAACUAUGACACGCAAAACGCGUGCUCCGUUGAAUGGAGUUUAUCAUG

Variants of: B1
Assay: polymerase ribozyme fitness, log enrichment relative to wild type (log ratio); higher = more active; in vitro selection for triplet polymerase activity
Summary of the method: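 To select mutant libraries of each subunit of a heterodimeric triplet polymerase ribozyme, built by PCR and transcribed, each was annealed with a biotinylated primer, partner subunit and triplets, then incubated frozen at −7 °C. Extended constructs were gel-excised, captured on streptavidin beads and amplified by RT-PCR, in one round carried out in triplicate. Illumina sequencing of input and output libraries kept genotypes with ≥10 input reads and ≥1 read per output. Fitness is the base-2 logarithm of genotype enrichment relative to wild-type enrichment, from inverse-variance-weighted replicate averages.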

Point of comparison: GGAUCUUCUCGAUCUAACAAAAAAGACAAAUGUGCCACAAAGCUUGAGCGCAACUUCGGAUGCAGAGGCGGCAGCCUUCGGUGGUUCGAUAGCGCCAAAGUUCUCAACUAUGACACGCAAAACGCGUGCUCCGUUGAGUGGAGUUUAUCGUG [C32G A49C U53A C85U G86U C99A A138G A150G], “polymerase ribozyme fitness (log ratio)” value -4.03. Against it:
- GGAUCUUCUCGAUCUAACAAAAAAGACAAAUGUGCCACAUAGCUUGAGAGCAUCUUCCGAUACAGAGGCGGCAGCCUUCGGUGGCGCGAUAGCACCAACGUUCUCAACUAUGACACGGAAAACGCGUGCUCCGUUGAAUGGAGUUUAUCAUG [C32G A40U G58C G62A G94A C118G] — lower, ≤ -4.2
- GGAUCUUCUCGAUCUAACAAAAAAGACAAAUGUGCCACAACGCUUGAGAGUCUCUUCGGAUGCAGAGGCGGCAGUCUUCGGUGUCGCGAUAGCGCCAACGUUCUCAACUAUGCCACGCAAAACGCGUGCUCCGUUGAAUGGAGUUUAUCAUG [C32G A41C C51U A52C C75U G84U A113C] — lower, ≤ -4.2
- GGAUCUUCUCGAUCUAACAAAAAAGACAAAUGUGCCACAACGCUUGAGAGCAUCUUCGGAUGCAGAGGCGGCAGCCUUCGGUGGUGCGAUAGCGCCAACGUUCUCAACUAUGACACGCAAAACGCGUGCUCCGUUGAAUGGAGUUUAUCAUG [C32G A41C C85U] — lower, ≤ -4.2
- GGAUCUUCUCGAUCUAACAAAAAAGACAAAUGUGCCACAACGCUUGAGAGCAUCUUCGGAUGCAGAGCCGGCAGCCUUCGGUGGCGCGAUAGCGCCAACGUUCUCAACUAUGAGACGCAAAACGCGUGCUCCAUUGAAUGGAGUUUAUCAUG [C32G A41C G68C C114G G133A] — lower, ≤ -4.2
- GGAUCUUCUCGAUCUAACAAAAAAGACAAAUGUGCCACAACGCUUGAGAGCAUCAUCGGAUGCAGAGGCGGCAGCUUUCGGUGGCGCGAUAGCACCAACGUUCUCAACUAUGAAACGCAAAACGCGUGCUCCGUUGAAUGCAGUUUAUAAUG [C32G A41C U55A C76U G94A C114A G141C C149A] — lower, ≤ -4.2
- GGAUCUUCUCGAUCUAACAAAAAAGACAAAUGUGCCACAAUGCUUGAGAGCUUCUUCGGUUGCAGAGGCGGCAGCCUUCGGUGGCGCGAUAGCACCAACGUUGUCAACUCUGACACGCAAAACGCGUGCUCCGUUGAAUGUAGUUUAUCAUG [C32G A41U A52U A60U G94A C103G A110C G141U] — lower, ≤ -4.2
- GGAUCUUCUCGAUCUAACAAAAAAGACAAAUGUGCCACAAAGCUUGCGAGCAUCUUCGGAUGCAGAGGCGGCAGCCUUCGGUGGCGCGAUAGCGCCAAUGUACUCAACUAUGACACGCAAAACGCGUGCUCCGUUGAAUGGAGUUUAUCAUG [C32G A47C C99U U102A] — lower, ≤ -4.2
- GGAUCUUCUCGAUCUAACAAAAAAGACAAAUGUGCCACAAAGCUUGCGAGCAUCAGCGGAUGCAGAUGCGGCAGCCUUCGGUGGCGCAAUAGCGCCAACCUUCUUAACUAUGACACGCAAAACGCGUGCUCCGUUGUAUGUAGUUUAUCAUG [C32G A47C U55A U56G G67U G88A G100C C105U A137U G141U] — lower, ≤ -4.2
- GGAUCUUCUCGAUCUAACAAAAAAGACAAAUGUGCCACAAAGCUUGGGAGCAUCAUCGGAUGCAGAGGCGGCAGCCUUCGGUGGCGCGAUAGCGCCAACGUUCUCAACUAUGACACGCAAAACGCGUGCUCCGUUGAAUGGAGUUUAUCAUG [C32G A47G U55A] — lower, ≤ -4.2
- GGAUCUUCUCGAUCUAACAAAAAAGACAAAUGUGCCACAAAGCUUGAGCGCAUCUUCGGAUGCAGAGGCGGUAGCCUUCGGUGGCGCGAUAGCGCCAACGUUCUCAACUAUGACACGCAAAACGCGUGCUCCGUUGAAUGGAGUUUAUCAAG [C32G A49C C72U U151A] — lower, ≤ -4.2
- GGAUCUUCUCGAUCUAACAAAAAAGACAAAUGUGCCACAAAGCUUGAGCGCAUCUUCGGAUGCAGAGGCGGCAGCCUUCGGUGGCGGGAUAGCGCCAACGUUGUCAACUAUGAAACGCAAAACGCGUGCUCCGUUGAAUGGAGUUUAUCAUG [C32G A49C C87G C103G C114A] — lower, ≤ -4.2
- GGAUCUUCUCGAUCUAACAAAAAAGACAAAUGUGCCACAAAGCUUGAGAGCCUCUUCGGAUGCAGAGGCGGCAGCCUUCGGUGGAGCGGUAGCGCCAACGUUCUCAACUAUGACCCGCAAAACGCGUGCUCCGUUGAAUGGAGUUUAUCAUG [C32G A52C C85A A89G A115C] — lower, ≤ -4.2
- GGAUCUUCUCGAUCUAACAAAAAAGACAAAUGUGCCACAAAGCUUGAGAGCGUCUUCGGAUGCAGAGGCGGCAGCCUUCGGUGGCGUGAUAGCGCCAACGUUCUCACCUAUGACACGCCAAACGCGUGCUCCGUUGAAUGCAGUUUAUCAUG [C32G A52G C87U A107C A119C G141C] — lower, ≤ -4.2
- GGAUCUUCUCGAUCUAACAAAAAAGACAAAUGUGCCACAAAGCUUGAGAGCAUCUUCGGAUGCAGAGGCGGCAGCCUUCGGUGGCGCGAUCGCGCCAACGUUCUCAACUAUGACACUCAAAACGCGUGCUCCGUUGUAUGGAGUUUAUCAUG [C32G A91C G117U A137U] — lower, ≤ -4.2
- GGAUCUUCUCGAUCUAACAAAAAAGACAAAUGUGCCACAAAGCUUGAGAGCAUCUUCGGAUGCAGAGGCGGCAGCCUUCGGUGGCGCGAUAGCGCCAACGUUCUCAACUGUGACACGCAAACCGCGUGCUCCGUUGAAUGCAGUUUAUCAUG [C32G A110G A122C G141C] — within 0.2 log units, -4.02
- GGAUCUUCUCGAUCUAACAAAAAAGACAAAUGUGCCACAAAGCUUGAGAGCAUCUUCGGAUGCAGAGGCGGCAGCCUUCGGUGGCGCGAUAGCGCCAACGUUCUCAACUAUGACACGCAACACUCGUGCUCCGUUGAAUGGGGUUUAUCAUG [C32G A121C G124U A142G] — lower, ≤ -4.2
- GGAUCUUCUCGAUCUAACAAAAAAGACAAAUGUGUCACAAAGCUUGAGAGCAUCUUCGGAUGCAGAGGCGGGAGCCUUCGGUGGCGCGAUAGCGCCAACGUUCUCCACUAUGACACGCAAAACGCGUGCUCCGUUGAAUGGAGUUUAUCAUG [C32G C35U C72G A106C] — lower, ≤ -4.2
- GGAUCUUCUCGAUCUAACAAAAAAGACAAAUGUGCUACAAAGCUUGAGAGCAUCUUCGGAUGCAGAGGUGGCAGCCUUCGGUGGCGCGAUAGCGCCAACGUUCUCAACUAUGACACGCAAAACGCGUGCUCCGUUGAAUGGAGUUUAUCAUG [C32G C36U C69U] — lower, ≤ -4.2
